Values marked as one replicate rest on one cluster of the flow cell; about a third of the high ones do not repeat.
Tested on: ATP
Assay: switch fluorescence ratio, 500 uM ATP over buffer (Cy3 cluster intensity, sum of 5 cycles each) (fold (ratio)); higher = stronger signal-on switching upon ATP binding; sequences stand for … in TCGTCGGCAGCGTCAGATGTGTATAAGAGACAGTTTTTTTTTTTTTTTTTTTTTTTTT…TC
Details: aptamer strand: ATP DNA aptamer (quencher-CACCTGGGGGAGTATTGCGGAGGAAGG + anchor), 100 nM annealed; ATP concentration: 500 uM; one replicate
In short: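 Imaging in selection buffer was followed by imaging after 15 min with 500 uM ATP at 22 °C, for Cy3-labelled switching-strand clusters annealed to 100 nM quencher-labelled ATP aptamer on a modified Illumina MiSeq flow-cell. Five of these buffer/ATP cycles ran, separated by NaOH stripping and re-annealing. The fluorescence ratio per cluster is summed target-cycle over summed buffer-cycle Cy3 intensity, averaged per switch-domain sequence; clusters outside 100-1000 RFU were removed.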
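Further: ATP exposure 15 min at 22 °C before imaging.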

| Sequence | switch fluorescence ratio |
| --- | --- |
| CACCGGAGCG | 1.58 |
| CACCGGCTCA | 1.32 |
| CACCGTGTCG | 1.05 |
| CACCGTGTGC | 1.28 |
| CACCTTGCGA | 1.44 |
| CACGACTGGT | 0.973 |
| CACGAGGGAC | 0.966 |
| CACGAGTACA | 1.16 |
| CACGAGTAGC | 0.985 |
| CACGCCTGG | 1.07 |
| CACGCCTGGT | 1.06 |
| CACGCTAAT | 1.39 |
| CACGCTACAT | 1.43 |
| CACGCTATCG | 1.12 |
| CACGCTGATG | 1.02 |
| CACGCTTTCA | 1.04 |
| CACGGCAACT | 1.34 |
| CACGGCGGTT | 1.01 |
| CACGGTATTG | 1.15 |
| CACGGTCAAA | 1.06 |
| CACGTAAACA | 1.23 |
| CACGTAAAGG | 1.23 |
| CACGTAGGAC | 1.19 |
| CACGTCGGCT | 1.05 |
| CACGTGCCTC | 1.01 |

| Sequence | switch fluorescence ratio |
| --- | --- |
| CACGTGCTGA | 0.925 |
| CACGTGGCTG | 0.956 |
| CACGTGTTG | 1 |
| CACGTTAGGG | 1.07 |
| CACGTTTCCG | 0.944 |
| CACTACCCGT | 1.13 |
| CACTACGGG | 1.02 |
| CACTACTTTT | 1.02 |
| CACTAGGCGT | 1.01 |
| CACTAGGTGT | 2.09 |
| CACTAGGTTC | 1.04 |
| CACTAGTCTT | 0.98 |
| CACTAGTGAA | 0.95 |
| CACTATAAAC | 1.06 |
| CACTATAAT | 1.08 |
| CACTATGCCT | 1.03 |
| CACTCAGCCG | 1.07 |
| CACTCCCTGT | 1.24 |
| CACTCCTGGG | 1.07 |
| CACTCGCGGG | 0.968 |
| CACTGAGTTT | 0.984 |
| CACTGCAGGT | 1.03 |
| CACTGGTATA | 1.06 |
| CACTGGTTTC | 1.01 |
| CACTTACTAT | 1.11 |

| Sequence | switch fluorescence ratio |
| --- | --- |
| CACTTATCTC | 1.01 |
| CAGAAAAACG | 1.03 |
| CAGAAACTCT | 1.09 |
| CAGAAAGACG | 0.964 |
| CAGAAATCTG | 1.17 |
| CAGAAATGAA | 1.12 |
| CAGAACAAGC | 1.02 |
| CAGAACTGTT | 0.991 |
| CAGACCGTC | 1.08 |
| CAGACCTAGC | 1.03 |
| CAGAGAGGGG | 1.03 |
| CAGAGGAGGA | 1.03 |
| CAGAGTCTGA | 1.01 |
| CAGAGTTCCA | 0.967 |
| CAGATAACTC | 1 |
| CAGATCAGTG | 0.999 |
| CAGATCGGTG | 0.962 |
| CAGATTGCAG | 1 |
| CAGATTGG | 0.981 |
| CAGATTTT | 0.97 |
| CAGCAAAATA | 1.11 |
| CAGCAAATAG | 1.19 |
| CAGCAGGGCC | 0.983 |
| CAGCCAGCAC | 2.04 |
| CAGCCATAGG | 0.976 |

| Sequence | switch fluorescence ratio |
| --- | --- |
| CAGCCATGTT | 0.966 |
| CAGCCCATAG | 1.09 |
| CAGCCGCTTA | 2.44 |
| CAGCCGTAG | 1 |
| CAGCGACTC | 1.31 |
| CAGCGCGATC | 3.49 |
| CAGCGCTTTA | 0.993 |
| CAGCGGAACA | 1.04 |
| CAGCGGCACA | 1.17 |
| CAGCGGCCAT | 1.03 |
| CAGCGTGACT | 1.11 |
| CAGCGTGCAT | 1.01 |
| CAGCTCGTGT | 0.972 |
| CAGCTCTACC | 1.09 |
| CAGCTCTC | 1.05 |
| CAGCTGAATA | 1.05 |
| CAGCTGTTAC | 2.33 |
| CAGCTTTGTT | 0.967 |
| CAGGAAGGG | 1.05 |
| CAGGACTACC | 1.05 |
| CAGGAGATTC | 1.01 |
| CAGGAGCTGG | 1.03 |
| CAGGAGTCAC | 1.12 |
| CAGGATAATG | 0.986 |
| CAGGATACTA | 0.992 |
